# Assay results reported in the supplement of paper PMC11880418.
# Where a name gives a salt, the structure may show the parent alone. The list shows a part of the results. The data scatter; read single values as rough.
# Legend:
# Experiment in all cases: ALDHbr (CSC) cell proportion score relative to DMSO vehicle (ratio to DMSO); breast (SUM159) / gastric (MKN45) / pancreatic (PANC1) / colon cancer lines; ALDHbr cells have high ALDH activity and are rich in cancer stem cells (CSC); higher = more CSC (ALDHbr) cells remaining
# Conditions in all cases: 10 µM; 72 h
# [1] = tested on: MKN45
# [2] = tested on: PANC1
# [3] = tested on: SUM159
# [4] = tested on: T84
# 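Also: High-content imaging of ALDEFLUOR-stained cells with Hoechst-labelled nuclei in 384-well plates, triplicate wells, scored as Z-score against 0.1% DMSO vehicle, negative meaning fewer ALDHbr cells.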
SMILES,ALDHbr [1],ALDHbr [2],ALDHbr [3],ALDHbr [4]
COCCOC(=O)C1=C(C)NC(C)=C(C(=O)OC/C=C/c2ccccc2)C1c1cccc([N+](=O)[O-])c1 (stereo unspecified) [Cilnidipine],1.29,0.736,0.76,1.28
Fc1ccc(C(c2ccc(F)cc2)N2CCN(C/C=C/c3ccccc3)CC2)cc1 [Flunarizine dihydrochloride],0.471,1.01,1.38,0.953
CC(=O)Oc1cc(C(F)(F)F)ccc1C(=O)O [Triflusal],1.13,0.953,1.15,0.986
N[C@@H](C(=O)N[C@@H]1C(=O)N2C(C(=O)O)=C(Cl)CC[C@H]12)c1ccccc1 [Loracarbef],1.2,0.935,1.03,0.986
CCCN[C@H]1CCc2nc(N)sc2C1 [Pramipexole dihydrochloride],1.16,0.929,1.29,0.861
CC(C)(C)NC(=O)[C@@H]1C[C@@H]2CCCC[C@@H]2CN1C[C@@H](O)[C@H](Cc1ccccc1)NC(=O)[C@H](CC(N)=O)NC(=O)c1ccc2ccccc2n1 [Saquinavir mesylate],0.431,0.68,0.38,0.661
C=C(CC)C(=O)c1ccc(OCC(=O)O)c(Cl)c1Cl [Ethacrynic acid],1.06,0.659,0.821,0.772
CCCCC(C)(O)C/C=C/[C@H]1[C@H](O)CC(=O)[C@@H]1CCCCCCC(=O)OC (mixture of isomers) [Misoprostol],1.04,0.912,1.47,0.873
Nc1ccc(S(N)(=O)=O)cc1 [Sulfanilamide],1.04,0.982,0.861,1.18
CC1CNc2c(cccc2S(=O)(=O)N[C@@H](CCCNC(=N)N)C(=O)N2CC[C@@H](C)C[C@@H]2C(=O)O)C1 (stereo partly specified) [Argatroban],1.06,0.874,0.804,1.04
CC[C@H]1OC(=O)[C@H](C)[C@@H](O[C@H]2C[C@@](C)(OC)[C@@H](O)[C@H](C)O2)[C@H](C)[C@@H](O[C@@H]2O[C@H](C)C[C@H](N(C)C)[C@H]2O)[C@](C)(O)C[C@@H](C)[C@@H]2N[C@@H](COCCOC)O[C@H]([C@H]2C)[C@]1(C)O [Dirithromycin],1.18,0.744,1.08,0.946
Nc1nnc(-c2cccc(Cl)c2Cl)c(N)n1 [Lamotrigine],1.08,0.952,0.861,0.975
COc1cc(C)c(/C=C/C(C)=C/C=C/C(C)=C/C(=O)O)c(C)c1C [Acitretin],1.11,2.08,0.0487,0.823
Cc1ccc(S(=O)(=O)NC(=O)NN2CCCCCC2)cc1 [Tolazamide],0.975,0.958,1,0.916
Clc1ccc(Cn2c(CN3CCCC3)nc3ccccc32)cc1 [Clemizole hydrochloride],0.569,0.756,0.868,1.01
CC1=Nc2ccc(Cl)cc2S(=O)(=O)N1 [Diazoxide],0.919,0.705,0.982,1.04
CC(C)(C(=O)O)c1ccc(C(O)CCCN2CCC(C(O)(c3ccccc3)c3ccccc3)CC2)cc1 (stereo unspecified) [Fexofenadine hydrochloride],1.09,0.934,0.881,1.06
O=C1Cc2cc(CCN3CCN(c4nsc5ccccc45)CC3)c(Cl)cc2N1 [Ziprasidone  Hydrochloride],1.08,0.566,1.08,1.07
N=C(N)N/N=C/c1c(Cl)cccc1Cl [Guanabenz acetate],1.37,1.05,1.03,0.91
"COCCc1ccc(OCC(O)CNC(C)C)cc1 (racemic) [Metoprolol-(+,-) (+)-tartrate salt]",0.9,0.903,0.976,0.989
O=C1CCC(N2C(=O)c3ccccc3C2=O)C(=O)N1 (stereo unspecified) [Thalidomide],0.95,0.965,1.1,0.985
CCN(CCCCOC(=O)c1ccc(OC)c(OC)c1)C(C)Cc1ccc(OC)cc1 (stereo unspecified) [Mebeverine hydrochloride],1.62,0.747,0.937,0.867
CCn1cc(C(=O)O)c(=O)c2cc(F)c(N3CCN(C)CC3)cc21 [Pefloxacine],0.995,0.785,1.2,0.994
COC(=O)N/N=C/c1c[n+]([O-])c2ccccc2[n+]1[O-] [Carbadox],1.12,1.08,1.69,1.07
CS(=O)(=O)OCCCCOS(C)(=O)=O [Busulfan],0.986,1,0.922,0.903
NNCCc1ccccc1 [Phenelzine sulfate],1.94,1.1,0.993,1.08
NC(=O)c1cc[n+](CC2=C(C(=O)[O-])N3C(=O)[C@@H](NC(=O)[C@@H](c4ccccc4)S(=O)(=O)O)[C@H]3SC2)cc1 [Cefsulodin sodium salt],1.01,0.908,0.938,0.774
CN1C2CCCC1CC(NC(=O)c1nn(C)c3ccccc13)C2 (stereo unspecified) [Granisetron],1.21,0.949,1.03,0.886
CC(C)NC(=N)NC(=N)Nc1ccc(Cl)cc1 [Proguanil hydrochloride],1.33,0.867,0.897,0.85
